Assays:
[1] = target: T1, human B7-H3 expressed on a cell surface (human cancer cell lines) (human, UniProt Q5ZPR3 29-534); test: flow cytometry, DLD-1 cells, antibody 10 ug/ml
T1 construct: whole, on cells; also called cell surface expression B7-H3 antigen
T1 sequence (looked up): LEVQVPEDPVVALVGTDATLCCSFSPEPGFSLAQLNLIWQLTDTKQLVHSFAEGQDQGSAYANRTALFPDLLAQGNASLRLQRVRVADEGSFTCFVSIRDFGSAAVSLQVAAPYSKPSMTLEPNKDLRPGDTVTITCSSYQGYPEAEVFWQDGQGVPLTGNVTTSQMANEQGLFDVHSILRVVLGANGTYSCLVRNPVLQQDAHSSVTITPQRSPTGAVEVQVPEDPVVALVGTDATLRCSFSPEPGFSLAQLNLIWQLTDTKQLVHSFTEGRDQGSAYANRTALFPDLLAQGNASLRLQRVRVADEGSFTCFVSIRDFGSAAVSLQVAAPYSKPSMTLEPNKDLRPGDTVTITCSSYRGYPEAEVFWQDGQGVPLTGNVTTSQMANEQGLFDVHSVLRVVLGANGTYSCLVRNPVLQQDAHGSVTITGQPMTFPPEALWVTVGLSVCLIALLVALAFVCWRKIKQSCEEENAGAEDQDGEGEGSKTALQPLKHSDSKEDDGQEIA
Source text: (§1) Using various kinds of cancer cells A2780 (human ovarian cancer, ECACC, 93112519), SKOV-3 (human ovarian adenocarcinoma, ATCC® HTB-77™) OVCAR-3 (human ovarian adenocarcinoma, ATCC® HTB-161™), HCT116 (colon cancer cell, ThermoFIshcer Sci), HT29 (olorectal adenocarcinoma, ATCC® HTB-38™), DLD-1 (colorectal adenocarcinoma cell lines, ATCC® CCL-221™), Calu-6 (Non-small-cell lung carcinoma, ATCC® HTB-56™), HCC1954 (TNM stage IIA, grade 3, ductal carcinoma, ATCC® CRL-2338™), HCC1187 (TNM stage IIA, ATCC® CLC-2322™), renal cancer cell line 786-0 (renal cell adenocarcinoma, ATCC® CRL-1932™), A498 (kidney carcinoma, ATCC® HTB-44™), Panc-1 (pancreas epithelioid carcinoma, TCC CRL-1469™), NCI-N87 (gastric carcinoma, TCC CRL-5822™), HeLa (cervix adenocarcinoma, ATCC® CCL-2™), JeKo-1 (Lymphoma, ATCC® CRL-3006™) and FACSCalibur (BD Biosciences) device, the degree of binding of anti-B7-H3 antibody to B7-H3 was measured as follows.
(§2) After dissociating each cell line and washing it with PBS buffer, the number of cells was counted and adjusted to 2×10^5 cells/200 µl PBS, and then was treated with 10 µg/ml of B7-H3 monoclonal antibodies prepared in Example 2. Reaction was allowed at 4° C. for 1 hr. After washing the reacted cells in PBS, the FITC-labeled constant region (Fc)-specific antibody (Goat anti-human IgG FITC conjugate, Fc specific, Sigma, F9512, concentration: 2.0 mg/ml)) was diluted by 1:500 and added 100 µl per well. and Reaction was allowed at 4° C. for 1 hr. After the reaction, cells were washed in PBS and analyzed using the FACSCalibur device. The negative control group was treated by the FITC-labeled constant region (Fc) specific antibody only. To compare expression degrees of B7-H3 among different cancer cell lines, the value for the peak shift in the experimental groups treated with the B7-H3 monoclonal antibody was divided by the value for the peak shift in the negative control group (MFI Ratio, Mean Fluorescence Intensity Ratio).

[2] = target: T1, human B7-H3 expressed on a cell surface …; test: flow cytometry, JeKo-1 cells, antibody 10 ug/ml
Source text: as §1, §2

[3] = target: T1, human B7-H3 expressed on a cell surface …; test: flow cytometry, Panc-1 cells, antibody 10 ug/ml
Source text: as §1, §2

[4] = target: T1, human B7-H3 expressed on a cell surface …; test: flow cytometry, SKOV-3 cells, antibody 10 ug/ml
Source text: as §1, §2

[5] = target: T1, human B7-H3 expressed on a cell surface …; test: flow cytometry, OVCAR-3 cells, antibody 10 ug/ml
Source text: as §1, §2

[6] = target: T1, human B7-H3 expressed on a cell surface …; test: flow cytometry, MDA-MB-468 cells, antibody 10 ug/ml
[7] = target: T2, recombinant human B7-H3 protein with a histidine tag linked to the C terminal (2318-B3/CF, R&D Systems) (human, UniProt Q5ZPR3 29-461); test: SPR, antibody captured on Protein A chip, B7-H3 antigen 3.125-100 nM as analyte
T2 construct: range 1-461; Bought; also called B7-H3-His antigen; recombinant human B7-H3-his protein
T2 sequence (looked up): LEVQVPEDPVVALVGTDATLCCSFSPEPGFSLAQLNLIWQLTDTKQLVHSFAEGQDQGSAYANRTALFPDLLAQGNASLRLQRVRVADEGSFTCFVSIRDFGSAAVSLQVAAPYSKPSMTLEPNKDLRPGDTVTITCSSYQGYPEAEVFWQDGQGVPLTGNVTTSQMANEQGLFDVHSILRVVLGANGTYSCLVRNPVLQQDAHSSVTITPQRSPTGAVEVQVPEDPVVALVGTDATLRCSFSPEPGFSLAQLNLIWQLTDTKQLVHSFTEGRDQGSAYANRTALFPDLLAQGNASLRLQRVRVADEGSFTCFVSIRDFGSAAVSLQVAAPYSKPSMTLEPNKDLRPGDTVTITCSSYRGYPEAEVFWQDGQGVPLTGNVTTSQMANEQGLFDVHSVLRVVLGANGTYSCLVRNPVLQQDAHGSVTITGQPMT
Method: The binding affinity of antigen B7-H3 and anti-B7-H3 antibody was measured by SPR method. First, anti-B7-H3 antibody diluted by 1×HBS-EP buffer was captured with 50 RU on Protein A chip (GE healthcare, Cat. No. 29127556) at a contact time of 60 sec, a stabilization period of 60 sec and a flow rate of 30 µl/min. With 1×HBS-EP buffer, the antigen B7-H3 (R&D systems, 2318-B3-050/CF) was serially two-fold diluted starting from 100 nM to 3.125 nM. At this point, 1×HBS-EP buffer was additionally prepared as a blank. The B7-H3 antigen prepared on the chip in which the anti-B7-H3 antibody was captured was flowed at a flow rate of 30 µl/min for the association time of 60 sec and dissociation time of 180 sec. Regeneration was conducted with 10 mM Glycine-HCl pH1.5 (GE healthcare, Cat. No. BR100354) at a flow time of 30 µl/min and a contact time of 30 sec.

B1: anti-B7-H3 antibody D8G (full IgG form) (antibody)
heavy: EVQLLESGGGLVQPGGSLRLSCAASGFTFSSYSMSWVRQAPGKGLEWVSGIYSDGSNTYYADSVKGRFTISRDNSKNTLYLQMNSLRAEDTAVYYCAKMLHRFDYWGQGTLVTVSS[human IgG1 constant region not shown]
light: QSVLTQPPSASGTPGQRVTISCSGSSSNIGSNSVTWYQQLPGTAPKLLIYADSQRPSGVPDRFSGSKSGTSASLAISGLRSEDEADYYCGTWDSSLNAYVFGGGTKLTVLGQPKAAPSVTLFPPSSEELQANKATLVCLISDFYPGAVTVAWKADSSPVKAGVETTTPSKQSNNKYAASSYLSLTPEQWKSHRSYSCQVTHEGSTVEKTVAPAECS
**Q.** B1 was tested. Which “MFI Ratio” value [1] did it give?
**A.** The value was 18.5 ratio.

**Q.** And the “MFI Ratio” value [2]?
**A.** The value was 3.1 ratio.

**Q.** And the “MFI Ratio” value [3]?
**A.** The value was 12 ratio.

**Q.** And the “MFI Ratio” value [4]?
**A.** The value was 23.3 ratio.

**Q.** And the “MFI Ratio” value [5]?
**A.** Its value is 26.7 ratio.

**Q.** And the “MFI Ratio” value [6]?
**A.** The value was 11.4 ratio.

**Q.** And the Kd [7]?
**A.** The Kd was 18.5 nM.

**Q.** What about the koff [7] of the same binder?
**A.** Its koff is 0.00381 s⁻¹.

**Q.** What about the kon [7] of the same binder?
**A.** Its kon is 206000 M⁻¹ s⁻¹.

B2: anti-B7-H3 antibody 10F11 (full IgG form) (antibody)
heavy: EVQLLESGGGLVQPGGSLRLSCAASGFTFSSYGMSWVRQAPGKGLEWVSGIYSGGSSKYYADSVKGRFTISRDNSKNTLYLQMNSLRAEDTAVYYCAKNRLRFDYWGQGTLVTVSS[human IgG1 constant region not shown]
light: QSVLTQPPSASGTPGQRVTISCTGSSSNIGSNSVTWYQQLPGTAPKLLIYSDSHRPSGVPDRFSGSKSGTSASLAISGLRSEDEADYYCGTWDASLNAYVFGGGTKLTVLGQPKAAPSVTLFPPSSEELQANKATLVCLISDFYPGAVTVAWKADSSPVKAGVETTTPSKQSNNKYAASSYLSLTPEQWKSHRSYSCQVTHEGSTVEKTVAPAECS
**Q.** Which “MFI Ratio” value [1] does the source give for B2 here?
**A.** The value was 24.6 ratio.

**Q.** And the “MFI Ratio” value [2]?
**A.** The value was 1.7 ratio.

**Q.** And the “MFI Ratio” value [3]?
**A.** The value was 18 ratio.

**Q.** What about the “MFI Ratio” value [4] of the same binder?
**A.** Its value is 28.5 ratio.

**Q.** And the “MFI Ratio” value [5]?
**A.** The value was 35.6 ratio.

**Q.** And the “MFI Ratio” value [6]?
**A.** The value was 17.2 ratio.

**Q.** What about the Kd [7] of the same binder?
**A.** Its Kd is 10.4 nM.

**Q.** And the koff [7]?
**A.** Its koff is 0.0037 s⁻¹.

**Q.** And the kon [7]?
**A.** Its kon is 357000 M⁻¹ s⁻¹.

B3: anti-B7-H3 antibody B5 (full IgG form) (antibody)
heavy: EVQLLESGGGLVQPGGSLRLSCAASGFTFSDYAMSWVRQAPGKGLEWVSSISSGSGSIYYADSVKGRFTISRDNSKNTLYLQMNSLRAEDTAVYYCAKNLIPLDYWGQGTLVTVSS[human IgG1 constant region not shown]
light: QSVLTQPPSASGTPGQRVTISCSGSSSNIGSNAVSWYQQLPGTAPKLLIYYNSHRPSGVPDRFSGSKSGTSASLAISGLRSEDEADYYCGSWDASLNAYVFGGGTKLTVLGQPKAAPSVTLFPPSSEELQANKATLVCLISDFYPGAVTVAWKADSSPVKAGVETTTPSKQSNNKYAASSYLSLTPEQWKSHRSYSCQVTHEGSTVEKTVAPAECS
**Q.** With B3 as the binder, how does the “MFI Ratio” value [1] read?
**A.** Its value is 24.9 ratio.

**Q.** What about the “MFI Ratio” value [2] of the same binder?
**A.** The value was 1.5 ratio.

**Q.** What about the “MFI Ratio” value [3] of the same binder?
**A.** Its value is 18 ratio.

**Q.** And the “MFI Ratio” value [4]?
**A.** The value was 29.5 ratio.

**Q.** What about the “MFI Ratio” value [5] of the same binder?
**A.** Its value is 33.1 ratio.

**Q.** And the “MFI Ratio” value [6]?
**A.** Its value is 16.2 ratio.

**Q.** What about the Kd [7] of the same binder?
**A.** Its Kd is 3.02 nM.

**Q.** What about the koff [7] of the same binder?
**A.** Its koff is 0.00112 s⁻¹.

**Q.** What about the kon [7] of the same binder?
**A.** Its kon is 372000 M⁻¹ s⁻¹.

B4: anti-B7-H3 antibody C4I (full IgG form) (antibody)
heavy: EVQLLESGGGLVQPGGSLRLSCAASGFTFSGYYMSWVRQAPGKGLEWVSLISPSSGSIYYADSVKGRFTISRDNSKNTLYLQMNSLRAEDTAVYYCAKGLTKFDYWGQGTLVTVSS[human IgG1 constant region not shown]
light: QSVLTQPPSASGTPGQRVTISCTGSSSNIGSNDVSWYQQLPGTAPKLLIYANSHRPSGVPDRFSGSKSGTSASLAISGLRSEDEADYYCGSWDDSLSGYVFGGGTKLTVLGQPKAAPSVTLFPPSSEELQANKATLVCLISDFYPGAVTVAWKADSSPVKAGVETTTPSKQSNNKYAASSYLSLTPEQWKSHRSYSCQVTHEGSTVEKTVAPAECS
notes: also called C41
**Q.** Which “MFI Ratio” value [1] does the source give for B4 here?
**A.** The value was 14.9 ratio.

**Q.** And the “MFI Ratio” value [2]?
**A.** Its value is 7.9 ratio.

**Q.** What about the “MFI Ratio” value [3] of the same binder?
**A.** Its value is 12 ratio.

**Q.** What about the “MFI Ratio” value [4] of the same binder?
**A.** The value was 20.4 ratio.

**Q.** What about the “MFI Ratio” value [5] of the same binder?
**A.** The value was 22.4 ratio.

**Q.** What about the “MFI Ratio” value [6] of the same binder?
**A.** Its value is 9.7 ratio.

**Q.** What about the Kd [7] of the same binder?
**A.** Its Kd is 7.69 nM.

**Q.** What about the koff [7] of the same binder?
**A.** The koff was 0.00341 s⁻¹.

**Q.** And the kon [7]?
**A.** Its kon is 444000 M⁻¹ s⁻¹.

B5: anti-B7-H3 antibody F6V (full IgG form) (antibody)
heavy: EVQLLESGGGLVQPGGSLRLSCAASGFTFSDYAMSWVRQAPGKGLEWVSGISPGGSNTYYADSVKGRFTISRDNSKNTLYLQMNSLRAEDTAVYYCAKDAWIARLLLFDYWGQGTLVTVSS[human IgG1 constant region not shown]
light: QSVLTQPPSASGTPGQRVTISCSGSSSNIGSNAVTWYQQLPGTAPKLLIYYNNKRPSGVPDRFSGSKSGTSASLAISGLRSEDEADYYCGTWDDSLSGYVFGGGTKLTVLGQPKAAPSVTLFPPSSEELQANKATLVCLISDFYPGAVTVAWKADSSPVKAGVETTTPSKQSNNKYAASSYLSLTPEQWKSHRSYSCQVTHEGSTVEKTVAPAECS
**Q.** With B5 as the binder, how does the “MFI Ratio” value [1] read?
**A.** The value was 25.6 ratio.

**Q.** And the “MFI Ratio” value [3]?
**A.** Its value is 19 ratio.

**Q.** And the “MFI Ratio” value [4]?
**A.** The value was 27.7 ratio.

**Q.** What about the “MFI Ratio” value [5] of the same binder?
**A.** Its value is 33.1 ratio.

**Q.** And the “MFI Ratio” value [6]?
**A.** Its value is 17.6 ratio.

**Q.** And the Kd [7]?
**A.** Its Kd is 8.03 nM.

**Q.** And the koff [7]?
**A.** Its koff is 0.00088 s⁻¹.

**Q.** And the kon [7]?
**A.** The kon was 110000 M⁻¹ s⁻¹.
